Measured values taken from US20040259082A1 (priority 2001, published 2004).

How the values were obtained:
T7 DNA polymerase exo- = molecular target: T1, T7 DNA polymerase exo- (Escherichia phage T7, UniProt P00581, D5A/E7A); experiment: Primer extension with γ-labeled dTTP; assay type: biochemical; details: 100 mer template (FIG. 16)
T1 construct: made in house; host or cells: E. coli TOP 10
Procedure: Samples contained 50 mM IRD700-labeled primer, 100 nM template, 100 nM polymerase, 20 μM each dNTP with either unlabeled or γ-labeled dTTP. Incubation times (a-f) were 5, 10, 30, 60, 90 and 120 sec at 20° C.
FIG. 16 illustrates that there is no dTTP contamination in other components of the reaction mix. Lane 1 is a negative control showing the primed single-strand template.
To rule out the possibility of contamination, the γ-dTTP-BQS(++)-BodipyTR was analyzed by HPLC for unlabeled dTTP: none was found. Another experiment was done with a different template (the 100 mer used for the high-throughput polymerase assay) to try to detect dTTP contamination in other components of the reaction mix (FIG. 16): none was found. PPi-F is produced using T7 polymerase. The cleavage product is purified free from Mg^++.

T7 DNA polymerase [1] = details: published value, Patel et al. 1991; read-out: Km for dTTP (published value); cited from earlier work
T7 DNA polymerase [2] = molecular target: T7 DNA polymerase (Escherichia phage T7, UniProt P00581, DEL118-145); details: 50 μM dATP, dCTP, dGTP; 37° C. for 30 min

Compound | primer extension product (T7 DNA polymerase exo-) | Km (T7 DNA polymerase [1]) | incorporation of γ-dUTP analogs / dUTP (FIG. 6) (T7 DNA polymerase [2])
Cc1cn([C@H]2C[C@H](O)[C@@H](COP(=O)(O)OP(=O)(O)OP(=O)(O)O)O2)c(=O)[nH]c1=O [dTTP] | fully-double-stranded primer extension product | 21 µM | –
O=c1ccn([C@H]2C[C@H](O)[C@@H](COP(=O)(O)OP(=O)(O)OP(=O)(O)O)O2)c(=O)[nH]1 [dUTP] | – | – | synthesized full-length product
